Some of the results follow.
Columns and labels:
Experiment in all cases: glycan array binding signal (z-score within array); higher = stronger binding
Conditions in all cases: glycan notation: IUPAC condensed, linker removed
Gal(a1-6)Glc = target: Gal(a1-6)Glc
Summary of the method: (§1)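 Arrays were curated from the Consortium for Functional Glycomics database, 3228 in total, and kept only where the protein sequence was available. Binding is expressed as a within-array Z-score. This score was averaged across arrays of the same protein sequence at different concentrations or buffers and across linkers, and negative values can be read as non-binding.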

Gal(b1-2)Gal = target: Gal(b1-2)Gal
Summary of the method: as §1

Gal(b1-3)Gal = target: Gal(b1-3)Gal
Summary of the method: as §1

Gal(b1-3)Gal(b1-4)GlcNAc = target: Gal(b1-3)Gal(b1-4)GlcNAc
Summary of the method: as §1

Gal(b1-3)GalNAc = target: Gal(b1-3)GalNAc
Summary of the method: as §1

[1] = target: Gal(b1-3)GalNAc(a1-3)[Fuc(a1-2)]Gal(b1-4)Glc
Summary of the method: as §1

[2] = target: Gal(b1-3)GalNAc(a1-3)[Fuc(a1-2)]Gal(b1-4)GlcNAc
Summary of the method: as §1

Gal(b1-3)GalNAc(b1-3)Gal = target: Gal(b1-3)GalNAc(b1-3)Gal
Summary of the method: as §1

[3] = target: Gal(b1-3)GalNAc(b1-3)Gal(a1-4)Gal(b1-4)Glc
Summary of the method: as §1

[4] = target: Gal(b1-3)GalNAc(b1-4)Gal(b1-4)Glc
Summary of the method: as §1

[5] = target: Gal(b1-3)GalNAc(b1-4)[Neu5Ac(a2-3)]Gal(b1-4)Glc
Summary of the method: as §1

Gal(b1-3)GlcNAc = target: Gal(b1-3)GlcNAc
Summary of the method: as §1

[6] = target: Gal(b1-3)GlcNAc(a1-3)Gal(b1-4)GlcNAc
Summary of the method: as §1

[7] = target: Gal(b1-3)GlcNAc(a1-6)Gal(b1-4)GlcNAc
Summary of the method: as §1

Gal(b1-3)GlcNAc(b1-2)Man = target: Gal(b1-3)GlcNAc(b1-2)Man
Summary of the method: as §1

[8] = target: Gal(b1-3)GlcNAc(b1-2)Man(a1-3)[Gal(b1-3)GlcNAc(b1-2)Man(a1-6)]Man(b1-4)GlcNAc(b1-4)GlcNAc
Summary of the method: as §1

[9] = target: Gal(b1-3)GlcNAc(b1-2)Man(a1-3)[Gal(b1-3)GlcNAc(b1-2)Man(a1-6)]Man(b1-4)GlcNAc(b1-4)[Fuc(a1-6)]GlcNAc
Summary of the method: as §1

[10] = target: Gal(b1-3)GlcNAc(b1-2)Man(a1-3)[GlcNAc(b1-4)][Gal(b1-3)GlcNAc(b1-2)Man(a1-6)]Man(b1-4)GlcNAc(b1-4)GlcNAc
Summary of the method: as §1

[11] = target: Gal(b1-3)GlcNAc(b1-2)[Gal(b1-3)GlcNAc(b1-6)]Man(a1-6)[Gal(b1-3)GlcNAc(b1-2)Man(a1-3)]Man(b1-4)GlcNAc(b1-4)GlcNAc
Summary of the method: as §1

[12] = target: Gal(b1-3)GlcNAc(b1-3)Gal(b1-3)GlcNAc
Summary of the method: as §1

[13] = target: Gal(b1-3)GlcNAc(b1-3)Gal(b1-4)Glc
Summary of the method: as §1

[14] = target: Gal(b1-3)GlcNAc(b1-3)Gal(b1-4)GlcNAc
Summary of the method: as §1

[15] = target: Gal(b1-3)GlcNAc(b1-3)Gal(b1-4)GlcNAc(b1-2)Man(a1-3)[Gal(b1-3)GlcNAc(b1-3)Gal(b1-4)GlcNAc(b1-2)Man(a1-6)]Man(b1-4)GlcNAc(b1-4)GlcNAc
Summary of the method: as §1

[16] = target: Gal(b1-3)GlcNAc(b1-3)Gal(b1-4)GlcNAc(b1-2)[Gal(b1-3)GlcNAc(b1-3)Gal(b1-4)GlcNAc(b1-6)]Man(a1-6)[Gal(b1-3)GlcNAc(b1-3)Gal(b1-4)GlcNAc(b1-2)Man(a1-3)]Man(b1-4)GlcNAc(b1-4)[Fuc(a1-6)]GlcNAc
Summary of the method: as §1

[17] = target: Gal(b1-3)GlcNAc(b1-3)Gal(b1-4)GlcNAc(b1-3)Gal(b1-4)GlcNAc(b1-2)[Gal(b1-3)GlcNAc(b1-3)Gal(b1-4)GlcNAc(b1-3)Gal(b1-4)GlcNAc(b1-6)]Man(a1-6)[Gal(b1-3)GlcNAc(b1-3)Gal(b1-4)GlcNAc(b1-3)Gal(b1-4)GlcNAc(b1-2)Man(a1-3)]Man(b1-4)GlcNAc(b1-4)[Fuc(a1-6)]GlcNAc
Summary of the method: as §1

[18] = target: Gal(b1-3)GlcNAc(b1-3)Gal(b1-4)GlcNAc(b1-6)[Gal(b1-3)GlcNAc(b1-3)]Gal(b1-4)Glc
Summary of the method: as §1

[19] = target: Gal(b1-3)GlcNAc(b1-3)Gal(b1-4)[Fuc(a1-3)]GlcNAc
Summary of the method: as §1

[20] = target: Gal(b1-3)GlcNAc(b1-3)Gal(b1-4)[Fuc(a1-3)]GlcNAc(b1-6)[Gal(b1-3)GlcNAc(b1-3)]Gal(b1-4)Glc
Summary of the method: as §1

[21] = target: Gal(b1-3)GlcNAc(b1-3)GalNAc
Summary of the method: as §1

[22] = target: Gal(b1-3)GlcNAc(b1-6)Gal(b1-4)GlcNAc
Summary of the method: as §1

[23] = target: Gal(b1-3)GlcNAc(b1-6)GalNAc
Summary of the method: as §1

[24] = target: Gal(b1-3)GlcNAc(b1-6)[Gal(b1-3)]GalNAc
Summary of the method: as §1

Gal(b1-3)GlcNAc6S = target: Gal(b1-3)GlcNAc6S
Summary of the method: as §1

[25] = target: Gal(b1-3)[Fuc(a1-4)]GlcNAc
Summary of the method: as §1

[26] = target: Gal(b1-3)[Fuc(a1-4)]GlcNAc(b1-2)Man
Summary of the method: as §1

[27] = target: Gal(b1-3)[Fuc(a1-4)]GlcNAc(b1-2)Man(a1-3)[Gal(b1-3)[Fuc(a1-4)]GlcNAc(b1-2)Man(a1-6)]Man(b1-4)GlcNAc(b1-4)[Fuc(a1-6)]GlcNAc
Summary of the method: as §1

[28] = target: Gal(b1-3)[Fuc(a1-4)]GlcNAc(b1-3)Gal(b1-3)[Fuc(a1-4)]GlcNAc
Summary of the method: as §1

[29] = target: Gal(b1-3)[Fuc(a1-4)]GlcNAc(b1-3)Gal(b1-4)[Fuc(a1-3)]GlcNAc
Summary of the method: as §1

[30] = target: Gal(b1-3)[Fuc(a1-4)]GlcNAc(b1-6)GalNAc
Summary of the method: as §1

[31] = target: Gal(b1-3)[GlcNAc(b1-6)]GalNAc
Summary of the method: as §1

[32] = target: Gal(b1-3)[Neu5Ac(a2-6)]GalNAc
Summary of the method: as §1

[33] = target: Gal(b1-3)[Neu5Ac(a2-6)]GlcNAc(b1-4)Gal(b1-4)Glc
Summary of the method: as §1

[34] = target: Gal(b1-3)[Neu5Ac(b2-6)]GalNAc
Summary of the method: as §1

Gal(b1-4)Gal = target: Gal(b1-4)Gal
Summary of the method: as §1

[35] = target: Gal(b1-4)GalNAc(a1-3)[Fuc(a1-2)]Gal(b1-4)GlcNAc
Summary of the method: as §1

B1: HBHA-Rv (Mycobacterium tuberculosum), P0A5P6 (protein)
chain: MAENSNIDDIKAPLLAALGAADLALATVNELITNLRERAEETRTDTRSRVEESRARLTKLQEDLPEQLTELREKFTAEELRKAAEGYLEAATSRYNELVERGEAALERLRSQQSFEEVSARAEGYVDQAVELTQEALGTVASQTRAVGERAAKLVGIELPKKAAPAKKAAPAKKAAPAKKAAAKKAPAKKAAAKKVTQK
glycan array binding signal (z-score) (Gal(a1-6)Glc): -0.054 | glycan array binding signal (z-score) (Gal(b1-2)Gal): 0.815 | glycan array binding signal (z-score) (Gal(b1-3)Gal): -0.264 | glycan array binding signal (z-score) (Gal(b1-3)Gal(b1-4)GlcNAc): -0.171 | glycan array binding signal (z-score) (Gal(b1-3)GalNAc): 0.238 | glycan array binding signal (z-score) [1]: -0.329 | glycan array binding signal (z-score) [2]: -0.374 | glycan array binding signal (z-score) (Gal(b1-3)GalNAc(b1-3)Gal): -0.345 | glycan array binding signal (z-score) [3]: -0.254 | glycan array binding signal (z-score) [4]: -0.315 | glycan array binding signal (z-score) [5]: -0.003 | glycan array binding signal (z-score) (Gal(b1-3)GlcNAc): 0.305 | glycan array binding signal (z-score) [6]: -0.406 | glycan array binding signal (z-score) [7]: -0.293 | glycan array binding signal (z-score) (Gal(b1-3)GlcNAc(b1-2)Man): 0.373 | glycan array binding signal (z-score) [8]: -0.443 | glycan array binding signal (z-score) [9]: -0.463 | glycan array binding signal (z-score) [10]: 0.595 | glycan array binding signal (z-score) [11]: -0.355 | glycan array binding signal (z-score) [12]: -0.381 | glycan array binding signal (z-score) [13]: -0.226 | glycan array binding signal (z-score) [14]: -0.366 | glycan array binding signal (z-score) [15]: -0.396 | glycan array binding signal (z-score) [16]: -0.072 | glycan array binding signal (z-score) [17]: -0.414 | glycan array binding signal (z-score) [18]: -0.472 | glycan array binding signal (z-score) [19]: -0.198 | glycan array binding signal (z-score) [20]: -0.453 | glycan array binding signal (z-score) [21]: 0.212 | glycan array binding signal (z-score) [22]: -0.392 | glycan array binding signal (z-score) [23]: -0.248 | glycan array binding signal (z-score) [24]: -0.256 | glycan array binding signal (z-score) (Gal(b1-3)GlcNAc6S): -0.234 | glycan array binding signal (z-score) [25]: 0.313 | glycan array binding signal (z-score) [26]: 1.28 | glycan array binding signal (z-score) [27]: -0.245 | glycan array binding signal (z-score) [28]: -0.12 | glycan array binding signal (z-score) [29]: -0.166 | glycan array binding signal (z-score) [30]: -0.297 | glycan array binding signal (z-score) [31]: -0.131 | glycan array binding signal (z-score) [32]: 0.383 | glycan array binding signal (z-score) [33]: 0.417 | glycan array binding signal (z-score) [34]: 0.054 | glycan array binding signal (z-score) (Gal(b1-4)Gal): 0.015 | glycan array binding signal (z-score) [35]: -0.277

Source: the supplement of paper PMC8728848
